From PubChem BioAssay AID588591 (National Center for Advancing Translational Sciences (NCATS), 2011)
Out of some 390,000 compounds screened, about 4,700 (1.2%) were called active. The shares of active, inactive and inconclusive entries below differ from those in the screen. Calls follow the shape of the dose curve; as a rule, active = well fitted inhibition curve with a large enough effect; inconclusive = small, poorly fitted or top-dose-only effect, or another doubt; inactive = no such curve, though single readings can be large or run the other way. Where the call is inconclusive, the potency comes from a doubtful curve fit.

What follows are compounds tested against DNA polymerase eta (Homo sapiens) (UniProt Q9Y253) (assay: qHTS for Inhibitors of Polymerase Eta). Settings: recombinant Pol eta, fluorescent DNA replication assay; series mostly up to 114 µM; activity change, negative = inhibition: at the top concentration.
UniProt Q9Y253, sequence (Q9Y253 whole entry, looked up): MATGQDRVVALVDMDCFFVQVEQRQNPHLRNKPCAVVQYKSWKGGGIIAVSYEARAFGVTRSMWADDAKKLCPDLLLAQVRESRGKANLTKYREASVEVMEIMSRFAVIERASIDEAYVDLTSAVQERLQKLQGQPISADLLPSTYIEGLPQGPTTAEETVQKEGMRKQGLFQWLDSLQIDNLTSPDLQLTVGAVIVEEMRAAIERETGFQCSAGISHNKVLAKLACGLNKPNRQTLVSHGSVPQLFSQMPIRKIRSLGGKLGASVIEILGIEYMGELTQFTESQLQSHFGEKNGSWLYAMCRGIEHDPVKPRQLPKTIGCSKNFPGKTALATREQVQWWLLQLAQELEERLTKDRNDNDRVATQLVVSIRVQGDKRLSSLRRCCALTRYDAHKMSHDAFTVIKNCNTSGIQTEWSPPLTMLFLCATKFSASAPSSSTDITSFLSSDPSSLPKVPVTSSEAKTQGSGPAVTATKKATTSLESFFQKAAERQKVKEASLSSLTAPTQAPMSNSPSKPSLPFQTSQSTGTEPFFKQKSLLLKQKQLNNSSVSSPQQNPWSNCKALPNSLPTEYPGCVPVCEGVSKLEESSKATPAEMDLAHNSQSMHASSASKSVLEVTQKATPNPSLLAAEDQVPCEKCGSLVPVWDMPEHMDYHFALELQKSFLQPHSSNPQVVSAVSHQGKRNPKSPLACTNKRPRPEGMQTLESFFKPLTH
Summary of the method: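 Pol eta (10 nM) was preincubated with compounds for 15 min at room temperature, after which fluorescent replication substrate (50 nM final) was added to start the reaction. Fluorescence was read kinetically at 0 and 10 min.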
% is scaled to controls: 0 for no effect and ±100 for the full control effect; potency is read from the fitted curve at half-maximal effect; tags tell the direction and shape of the fitted curve.

**Q.** For `O=C1c2cccc3cccc(c23)C(=O)N1CC1CCN(CC(O)COc2ccc3ccccc3c2)CC1` (stereo unspecified), which “activity change, negative = inhibition” value is on record?
**A.** inactive: -22.5%

**Q.** With `S=c1[nH]nc(-c2cccc(Cl)c2)n1/N=C/c1ccco1` as the compound, how does the Potency read?
**A.** inconclusive: 89.1 µM [inhibitor, partial curve, poor fit]

**Q.** With `COCc1cc(C)nc(SCC(=O)c2ccc(O)c(O)c2)c1C#N` as the compound, how does the Potency read?
**A.** active: 44.7 µM

**Q.** `COc1ccc(CC(=O)Nc2ccc(OC(C)=O)cc2C(=O)O)cc1` was tested. Which Potency did it give?
**A.** inconclusive: 89.1 µM [inhibitor, partial curve, poor fit]

**Q.** Which Potency does the source give for `CC1(C)Cc2ccccc2C(/C(=N\Nc2cccc(Cl)c2)C(N)=O)=N1` here?
**A.** inconclusive: 100 µM [inhibitor, partial curve, poor fit]

**Q.** How did the Potency turn out when `O=S(=O)(NCc1ccccc1)c1ccc2c(c1)OCCO2` was run?
**A.** inconclusive: 79.4 µM [inhibitor, partial curve, poor fit]

**Q.** How did the Potency turn out when `O=C1ON=C(c2ccccc2)/C1=C/c1ccc(OS(=O)(=O)c2ccccc2)cc1` was run?
**A.** inconclusive: 39.8 µM [inhibitor, partial curve]

**Q.** For `O=c1[nH]nc(-c2cc(-c3ccccc3)nc3ccccc23)o1`, which “activity change, negative = inhibition” value is on record?
**A.** inactive: -10.9%

**Q.** How did the Potency turn out when `CCOc1c(S(=O)(=O)N2CCCC2)ccc(Cl)c1Cl` was run?
**A.** inconclusive: 89.1 µM [inhibitor, partial curve, poor fit]

**Q.** Which Potency does the source give for `CC1=NOC(=O)/C1=C\c1ccc(-c2ccc(Br)cc2)o1` here?
**A.** active: 20 µM

**Q.** With `CCCn1c(C)cc(/C=C(\C#N)C(=O)OCC(=O)Nc2ccc(OC)c(Cl)c2)c1C` as the compound, how does the Potency read?
**A.** inconclusive: 22.4 µM [inhibitor, partial curve, poor fit]

**Q.** For `CCc1ccc(NC(=O)CSc2nc3c(sc4ccccc43)c(=O)n2CCCOC)cc1`, which “activity change, negative = inhibition” value is on record?
**A.** inactive: 3.98%

**Q.** `COCCCN(C(=O)CCSc1ccc(F)cc1)c1c(N)n(Cc2ccccc2)c(=O)[nH]c1=O` was tested. Which “activity change, negative = inhibition” value did it give?
**A.** inactive: -16%

**Q.** Which “activity change, negative = inhibition” value does the source give for `CCCCn1c(=N)c(S(=O)(=O)c2ccc(Cl)cc2)cc2c(=O)n3cccc(C)c3nc21` here?
**A.** inactive: -18.9%

**Q.** With `COc1cc2c(cc1NC(=S)Nc1cccc(C(F)(F)F)c1)oc1ccccc12` as the compound, how does the Potency read?
**A.** inconclusive: 31.6 µM [inhibitor, partial curve, poor fit]

**Q.** With `CCOc1cc(N2CCOCC2)c(OCC)cc1NC(=O)COC(=O)c1ccc([N+](=O)[O-])o1` as the compound, how does the Potency read?
**A.** inconclusive: 31.6 µM [inhibitor, partial curve, poor fit]

**Q.** How did the Potency turn out when `Cc1c(C(=O)NCc2ccco2)oc2c(F)cccc12` was run?
**A.** inconclusive: 39.8 µM [inhibitor, full curve]

**Q.** How did the Potency turn out when `COc1cccc(-c2nc(NCCN3CCOCC3)c3ccccc3n2)c1O` was run?
**A.** inconclusive: 14.1 µM [inhibitor, partial curve, poor fit]

**Q.** With `COC(=O)c1ccc(S(=O)(=O)N2C3CCC2CC(NC(=O)C2CC2)C3)cc1` (stereo unspecified) as the compound, how does the “activity change, negative = inhibition” value read?
**A.** inactive: 2.42%

**Q.** How did the Potency turn out when `NC(=O)C1CCN(C(=O)CSc2ccsc2[N+](=O)[O-])CC1` was run?
**A.** inconclusive: 22.4 µM [inhibitor, partial curve, poor fit]

**Q.** `Cc1c(NC(=O)c2cc(-n3cnnc3)ccc2Cl)cccc1-c1nc2ccccc2o1` was tested. Which “activity change, negative = inhibition” value did it give?
**A.** inactive: -14.2%

**Q.** With `COc1ccc(OC)c2sc(N3CCN(C(=O)c4ccc([N+](=O)[O-])s4)CC3)nc12` as the compound, how does the Potency read?
**A.** inconclusive: 28.2 µM [inhibitor, partial curve, poor fit]

**Q.** Which “activity change, negative = inhibition” value does the source give for `CC1CCC(NC(=O)COC(=O)c2ccc3ncsc3c2)CC1` (stereo unspecified) here?
**A.** inactive: -3.3%

**Q.** With `CCCCOC(=O)Nc1ccc(S(=O)(=O)Nc2onc(C)c2C)cc1` as the compound, how does the Potency read?
**A.** inconclusive: 39.8 µM [inhibitor, partial curve, poor fit]

**Q.** With `Cc1nn(-c2ccccc2)c(N)c1Sc1ccccc1[N+](=O)[O-]` as the compound, how does the Potency read?
**A.** inconclusive: 79.4 µM [inhibitor, partial curve, poor fit]

**Q.** How did the “activity change, negative = inhibition” value turn out when `Cc1cc(C)cc(-n2ccnc2SCC(=O)Nc2ccc(C)cc2C)c1` was run?
**A.** inactive: -18.3%

**Q.** Which Potency does the source give for `N#Cc1c2nc3ccccc3nc2n2cc(NC(=O)c3ccc(F)cc3)ccc12` here?
**A.** active: 35.5 µM

**Q.** For `COc1cc(NC(=O)COC(=O)c2cnc(C)cn2)c(C)cc1[N+](=O)[O-]`, which “activity change, negative = inhibition” value is on record?
**A.** inactive: -20.1%

**Q.** With `CCc1nn(CC(=O)NCc2ccccc2Cl)c(=O)c2cc3ccccc3n12` as the compound, how does the Potency read?
**A.** inconclusive: 100 µM [inhibitor, partial curve, poor fit]

**Q.** With `N#C/C(=C\c1cc([N+](=O)[O-])c(N2CCOCC2)cc1N1CCOCC1)c1nc2ccccc2[nH]1` as the compound, how does the Potency read?
**A.** inconclusive: 28.2 µM [inhibitor, partial curve, poor fit]

**Q.** Which Potency does the source give for `COc1ccc(C(=O)OCC(=O)c2ccc(CNC(C)=O)s2)cc1` here?
**A.** inconclusive: 25.1 µM [inhibitor, single point]

**Q.** How did the “activity change, negative = inhibition” value turn out when `COc1ccccc1-c1cc(C(F)(F)F)nc(N2CCN(c3ccc(F)cc3)CC2)n1` was run?
**A.** inactive: -10.8%

**Q.** `Cc1ccnc2nc(C(=O)Nc3nnc(-c4ccc(Cl)cc4)o3)nn12` was tested. Which Potency did it give?
**A.** inconclusive: 89.1 µM [inhibitor, single point]

**Q.** With `Cc1ccc(OCc2ccoc2C(=O)O)cc1C` as the compound, how does the Potency read?
**A.** active: 7.08 µM

**Q.** Which “activity change, negative = inhibition” value does the source give for `CC1C(=O)N(Cc2cn(CCC3OCCCO3)nn2)CCS(=O)(=O)N1Cc1ccc(-c2ccncc2)cc1` (stereo unspecified) here?
**A.** inactive: -9.44%

**Q.** How did the Potency turn out when `C=CCC1(CC=C)CCCN1C(=O)C1CCC(=O)N(CCc2ccc(Cl)cc2)C1` (stereo unspecified) was run?
**A.** inconclusive: 89.1 µM [inhibitor, single point]

**Q.** For `COc1cccc2nc3c(C(=O)NCCN(C)C)cccc3cc12`, which Potency is on record?
**A.** inconclusive: 35.5 µM [inhibitor, partial curve, poor fit]

**Q.** For `CCCCN(C(=O)c1cc(-c2ccco2)nc2ccccc12)c1c(N)n(CCC)c(=O)[nH]c1=O`, which Potency is on record?
**A.** active: 20 µM

**Q.** `COc1ccc(CCNC(=O)c2cc3c(s2)-c2c(C)cccc2OC3)c(OC)c1` was tested. Which “activity change, negative = inhibition” value did it give?
**A.** inactive: -11.1%

**Q.** With `Cc1cc(C)cc(NC(=O)Cn2nnc(C(=O)NCc3ccccc3Cl)c2N)c1` as the compound, how does the Potency read?
**A.** inactive

**Q.** Which “activity change, negative = inhibition” value does the source give for `CC(C)c1cc(C(=O)NC(C)c2ccccc2)no1` (stereo unspecified) here?
**A.** inactive: -26.6%

**Q.** For `COC(=O)C1CCN(S(=O)(=O)c2cc3c4c(c2)CCN4C(=O)CC3)CC1`, which “activity change, negative = inhibition” value is on record?
**A.** inactive: -5.34%

**Q.** How did the Potency turn out when `O=C1N=C(N2CCCCC2)S/C1=C/C1=Cc2ccccc2OC1` was run?
**A.** inconclusive: 35.5 µM [inhibitor, partial curve, poor fit]

**Q.** With `Nc1nnc(CCCCCCCCCCc2nnc(N)s2)s1` as the compound, how does the Potency read?
**A.** inconclusive: 39.8 µM [inhibitor, partial curve, poor fit]

**Q.** Which Potency does the source give for `CNC(=S)N(Cc1cccs1)Cc1cc2cc(OC)c(OC)cc2[nH]c1=O` here?
**A.** inconclusive: 56.2 µM [inhibitor, partial curve, poor fit]

**Q.** With `C/C(=N\Nc1cccc(C(=O)O)c1)c1cc2ccccc2o1` as the compound, how does the Potency read?
**A.** inconclusive: 35.5 µM [inhibitor, partial curve, poor fit]

**Q.** `COc1cccc(CNc2ccc(N3CCCCC3)cc2)c1OC` was tested. Which “activity change, negative = inhibition” value did it give?
**A.** inactive: -21.6%

**Q.** How did the Potency turn out when `CC(C)(C)C(=O)N(Cc1ccc(Cl)cc1)c1cnccn1` was run?
**A.** inconclusive: 79.4 µM [inhibitor, partial curve, poor fit]

**Q.** How did the Potency turn out when `Cc1cc(NS(=O)(=O)c2ccc(NC(=O)c3ccco3)cc2)nc(C)n1` was run?
**A.** inconclusive: 15.8 µM [inhibitor, partial curve, poor fit]

**Q.** For `COc1cc(NC(=O)Nc2nnc(N3CCCCCC3)s2)cc(OC)c1`, which “activity change, negative = inhibition” value is on record?
**A.** inactive: -20.6%

**Q.** Which “activity change, negative = inhibition” value does the source give for `O=C(N1CCOCC1)N1CCN(c2ccccc2)CC1` here?
**A.** inactive: -11.2%

**Q.** For `Nc1ncnc2nc(SCCC(=O)O)[nH]c12`, which Potency is on record?
**A.** inconclusive: 89.1 µM [inhibitor, partial curve, poor fit]

**Q.** Which Potency does the source give for `O=C1C(Cc2ccccc2)S/C(=N/N=C/c2ccco2)N1c1ccccc1` (stereo unspecified) here?
**A.** inconclusive: 22.4 µM [inhibitor, partial curve, poor fit]

**Q.** How did the Potency turn out when `CCCCN(C(=O)c1oc2ccc(OCC)cc2c1C)c1c(N)n(CC(C)C)c(=O)[nH]c1=O` was run?
**A.** inconclusive: 35.5 µM [inhibitor, single point]

**Q.** How did the Potency turn out when `Cc1ccc(S(=O)(=O)N2CCCCC2)cc1NC(=O)COC(=O)C1CC2C=CC1C2` (stereo unspecified) was run?
**A.** inconclusive: 89.1 µM [inhibitor, partial curve, poor fit]

**Q.** With `Cc1ccc(S(=O)(=O)Nc2cc3c(C(=O)O)c(C)oc3c3ccccc23)c(C)c1` as the compound, how does the Potency read?
**A.** inconclusive: 39.8 µM [inhibitor, partial curve]

**Q.** With `CCOc1cc(/C=N/NC(=O)c2nnn(-c3nonc3N)c2C)ccc1OCc1ccc(C)cc1` as the compound, how does the Potency read?
**A.** active: 10 µM

**Q.** `Cc1ccc(C(=O)O)cc1-c1ccc(/C=C2\SC(=O)N(CC(=O)Nc3ccc4c(c3)OCO4)C2=O)o1` was tested. Which Potency did it give?
**A.** active: 4.47 µM

**Q.** `NNC(=O)c1cccc(S(=O)(=O)Nc2cc(Cl)ccc2Cl)c1` was tested. Which Potency did it give?
**A.** inconclusive: 100 µM [inhibitor, partial curve, poor fit]

**Q.** How did the Potency turn out when `CCc1nc(OCc2ccco2)c2sc3nc4c(cc3c2n1)COC(C)(C)C4` was run?
**A.** inconclusive: 31.6 µM [inhibitor, partial curve, poor fit]

**Q.** For `COC(=O)c1sc(NC(=O)c2ccc(Cn3cc(Cl)cn3)o2)c(C#N)c1C`, which Potency is on record?
**A.** inconclusive: 22.4 µM [inhibitor, partial curve, poor fit]

**Q.** For `C/C(=N\NC(=O)c1cc(-c2cccnc2)nc2ccccc12)c1ccccc1O`, which Potency is on record?
**A.** inconclusive: 15.8 µM [inhibitor, partial curve, poor fit]

**Q.** Which Potency does the source give for `COCC(C)n1c(SCC(=O)Nc2ccc3c(c2)OCCO3)nc2ccccc2c1=O` (stereo unspecified) here?
**A.** inconclusive: 17.8 µM [inhibitor, full curve, poor fit]

**Q.** Which Potency does the source give for `O=C(O)CCn1cc(C2CC(c3ccccc3)=NN2c2ccccc2)c(-c2ccccc2)n1` (stereo unspecified) here?
**A.** inconclusive: 79.4 µM [inhibitor, partial curve, poor fit]

**Q.** For `COc1cccc(CNC(=O)CSc2cc(C)[nH]c(=O)n2)c1`, which “activity change, negative = inhibition” value is on record?
**A.** inactive: 1.92%

**Q.** Which Potency does the source give for `CN(C)S(=O)(=O)c1ccc(Cl)c(NC(=O)COC(=O)/C=C/c2ccco2)c1` here?
**A.** inconclusive: 17.8 µM [inhibitor, full curve, poor fit]
